Test results from PubChem BioAssay AID1508642 (National Center for Advancing Translational Sciences (NCATS), 2021).
The campaign covered roughly 43,000 compounds. About 200 (0.47%) were called active. Roughly 12% stayed inconclusive and do not appear here. Calls follow the shape of the dose curve; as a rule, active = well fitted cell-killing curve with a large enough effect; inconclusive = small, poorly fitted or top-dose-only effect, or effect the other way; inactive = flat fitted curve, though single readings scatter. Some of the results follow.

Experiment: Cell viability qHTS assay in S16 Pmp22-F2sN cells; also: nearly all actives have a fitted effect of over 65% in size
Conditions: S16 Pmp22-F2sN Schwann cells viability, CellTiter-Glo, 24 h; series mostly up to 57.5 µM; activity change, negative = cytotoxicity: at the top concentration
Procedure, shortened: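 Viability was measured by CellTiter-Glo luminescence (15 min, room temperature). This followed 24 h at 37 °C of compound exposure (23 nL pin transfer) in S16 Pmp22-F2sN Schwann cells, 500-1,000 per well.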
% is scaled to controls: 0 for no effect and ±100 for the full control effect.

Compound | activity change, negative = cytotoxicity
Cc1ccc(CNC(=O)CCCc2nnc3n(CC(C)C)c(=O)c4sccc4n23)cc1 | inactive: 11.9%
CCOC(=O)c1ccccc1NC(=O)c1nn(-c2ccc(OC)c(Cl)c2)c(=O)c2c1c1ccccc1n2C | inactive: 2.54%
Cc1sc2ncn(CC(=O)N3CCN(c4ccccc4)CC3)c(=O)c2c1S(=O)(=O)N1CCC(C)CC1 | inactive: -4.43%
COCCCNC(=O)C1CCN(c2nc3ccc(Cl)cc3[nH]2)CC1 | inactive: 4.42%
CC1=C(c2ccc(C(C)C)cc2)S(=O)(=O)NC1=NCc1ccc(Cl)cc1 | inactive: 12.2%
Cc1cccc(NC(=O)N2CC=C(c3c[nH]c4ccccc34)CC2)c1C | inactive: -7.24%
CCN(CC)C(=O)C1CCCN(c2ncnc3c2c(-c2ccccc2)cn3-c2cccc(C)c2)C1 (stereo unspecified) | inactive: -29.2%
O=c1c2nncn2ccn1-c1ccc(F)c(F)c1 | inactive: -3.11%
O=C(c1cc2cc3ccc(Cl)cc3nc2o1)N1CCN(c2cccc(Cl)c2)CC1 | inactive: -4.1%
O=C(CN1C(=O)CSc2ccc(S(=O)(=O)N3CCCC3)cc21)NCc1ccc(F)cc1Cl | inactive: 11.3%
Cc1ccc(CNC(=O)CSCc2nc(-c3cccc(C)c3)oc2C)cc1 | inactive: 4.66%
Cc1cn2c(=O)c(S(=O)(=O)NCc3ccc(F)cc3)c(C)nc2s1 | inactive: 2.46%
CCC(NC(=O)Nc1cccc(C)c1)c1c(-n2cccc2)sc2c1CCN(C)C2 (stereo unspecified) | inactive: -1.04%
O=C(CCC1N=C2c3ccccc3N=C(SCC(=O)NCCc3ccccc3)N2C1=O)NCc1ccc(F)cc1 (stereo unspecified) | inactive: 8.25%
O=C(NCc1ccccc1Cl)c1ccc(-n2cnc3cccnc32)cc1 | inactive: 6.27%
Cn1c(/C(C#N)=C/c2ccc(C(F)(F)F)cc2)nc2ccccc21 | inactive: -0.44%
CCOc1ccccc1NC(=O)Cn1nc(N2CCN(c3ccccc3)CC2)ccc1=O | inactive: -11.2%
COc1ccccc1CNC(=O)CSc1cc(C)[nH]c(=O)n1 | inactive: 3.08%
CCCN(CCC)C(=O)Cn1c(=O)n(-c2ccc(Cl)c(Cl)c2)c(=O)c2c(C)c(C(=O)N(C)C)sc21 | inactive: 0.136%
CCOc1ccc(OCC)c(NC(=O)C2CCCN(S(=O)(=O)c3ccc(C)cc3)C2)c1 (stereo unspecified) | inactive: 1.05%
CCOc1ccc(-c2nnc(SCC(=O)N(CC)c3cccc(C)c3)o2)cc1 | inactive: -22.3%

Compound | activity change, negative = cytotoxicity
O=C(Cn1c(=O)n(-c2ccccc2Cl)c(=O)c2sc3ccccc3c21)NC1CCCC1 | inactive: 2.73%
CCc1ccccc1N(CC)C(=O)Cn1nc(Cc2ccncc2)c2ccccc2c1=O | inactive: 14.6%
Cc1ccc(-n2cnc3cc(C(=O)NCCC4=CCCCC4)ccc32)cc1Cl | inactive: -27.4%
COc1ccc(CNC(=O)C(=O)NCC(c2cccs2)S(=O)(=O)c2cccs2)cc1 (stereo unspecified) | inactive: 16.6%
O=C(CCc1nc(-c2cccs2)no1)Nc1ccc([N+](=O)[O-])cc1 | inactive: 2.08%
Cc1ccc(OCC(=O)Nc2cccc3ccc(C)nc23)c(C)c1 | inactive: -9.21%
Cc1cccc(NC(=O)COc2ccc3oc4c(c3c2)CCCC4)c1 | inactive: -0.504%
CCOc1ccc2nc(N3CCCC(C(=O)NCCc4ccc(C)cc4)C3)sc2c1 (stereo unspecified) | inactive: 2.7%
Cc1ccc(NC(=O)CSc2nc3ccccc3n2CC(=O)N(C)C2CCCCC2)cc1C | inactive: -3.01%
CC(C(=O)Nc1ccccc1)n1nnc2sc3c(c2c1=O)CCCC3 (stereo unspecified) | inactive: 11%
Cc1ccccc1C(=O)Nc1ccccc1-c1nc(-c2ccccc2)no1 | inactive: 1.8%
CCc1nc2nc(C)c(NS(=O)(=O)c3ccc(F)c(C)c3)c(=O)n2[nH]1 | inactive: 3.97%
Cc1cc(C(=O)NCc2ccccc2)c2c(C)nn(-c3cccc(Cl)c3C)c2n1 | inactive: 4.54%
Cc1cccc(Cn2c(=O)n(Cc3ccccc3)c(=O)c3sc4ccccc4c32)c1 | inactive: 0.454%
CCCCn1c(CNC(=O)C23CC4CC(CC(C4)C2)C3)nnc1SCC(=O)Nc1ccc(F)cc1 | inactive: -0.979%
Cc1cccc(NC(=O)Nc2nnc(N3CCCC3)s2)c1 | inactive: 2.21%
CCOc1ccccc1NC(=O)CCc1c(C)nc2cc(-c3ccccc3)nn2c1C | inactive: 3.02%
CC(C)C(=O)Nc1cccc(C(=O)Nc2nnc(C(F)(F)F)s2)c1 | inactive: 4.07%
COc1cccc(CNC(=O)c2ccc3c(c2)nc2n3CCC(C)C2)c1 (stereo unspecified) | inactive: 14.3%
COc1ccc(-n2nc(-c3ccc(C)cc3)c3cnc4cc(F)c(F)cc4c32)cc1 | inactive: 11.1%
Cc1ccc(NC(=O)Cn2nc(-c3ccccc3)nc(Cc3ccccc3)c2=O)cc1 | inactive: -1.75%

Compound | activity change, negative = cytotoxicity
CCCN(CCC)C(=O)c1nn(C)c2c1CSc1ccccc1-2 | inactive: -3.48%
CCOCCCn1c(=N)c(C(=O)NCc2ccccc2)cc2c(=O)n3ccccc3nc21 | inactive: -0.0596%
COc1cccc(NC(=O)Cn2c(=O)n(CCc3cccc(C)c3)c(=O)c3ccccc32)c1 | inactive: 23.5%
Cc1cccc(NC(=O)c2c(NC(=O)c3ccco3)sc3c2CCC(C)C3)c1 (stereo unspecified) | inactive: -1.2%
CC1=C(C(=O)Nc2cccnc2)C(c2ccccc2Cl)n2nc(-c3ccccc3)nc2N1 (stereo unspecified) | inactive: 1.07%
Cc1cc(NC(=O)CSc2ncc(C(=O)Nc3ccc(C)c(C)c3)c(=O)n2C)no1 | inactive: -0.182%
Cc1ccc(NC(=O)CCSc2nc(-c3ccc4c(c3)OCO4)cc(C(F)(F)F)n2)c(C)c1 | inactive: 5.61%
Cc1cc(C)c2oc(-c3cccc(NC(=O)COc4ccccc4Cl)c3C)nc2c1 | inactive: -1.58%
CS(=O)(=O)c1ncc(Cl)c(C(=O)Nc2c(C(=O)c3ccc(Cl)cc3)oc3ccccc23)n1 | inactive: 0.69%
COc1ccc(CCNC(=O)c2ccc(Cn3c(SCC(=O)NCCC(C)C)nc4cc5c(cc4c3=O)OCO5)cc2)cc1OC | inactive: 4.96%
Cc1ccc(C2CC(=O)n3nc(-c4cccc(C)c4)nc3S2)cc1 (stereo unspecified) | inactive: -1.87%
CN(C)c1ccc(CNC(=O)C2CCN(S(=O)(=O)c3ccc4[nH]c(=O)ccc4c3)CC2)cc1 | inactive: -5.21%
CC(C)C(=O)Nc1nnc(SCc2cc(=O)n3ccccc3n2)s1 | inactive: 0.249%
COc1cc(-c2ccno2)ccc1S(=O)(=O)N1CCN(c2ccccc2)CC1 | inactive: -15.8%
Cc1ccc2nc(CN3CCN(S(=O)(=O)c4ccc(C)c(C)c4)CC3)oc2c1 | inactive: 10.1%
CC(=O)c1c(C)n(-c2ccc(C)cc2)c2ccc(OC(=O)COc3ccccc3)cc12 | inactive: -4.61%
CCOc1cccc(C(=O)N(Cc2ccc(F)cc2)Cc2ccco2)c1 | inactive: 6.54%
Cc1ccc(N2C(=O)CCSC23C(=O)N(Cc2ccc(F)cc2)c2ccccc23)cc1 (stereo unspecified) | inactive: -1.38%
Cc1ccc(N2C(=O)CS(=O)(=O)C23C(=O)N(Cc2ccc(Cl)cc2)c2ccccc23)cc1C (stereo unspecified) | inactive: 9.48%
